# PubChem BioAssay AID1508623 (National Center for Advancing Translational Sciences (NCATS), 2021)
# Among all 48,000 compounds or so, about 450 (0.94%) were called active. Roughly 19% stayed inconclusive and do not appear here. The call rests on the fitted dose curve; in most records, active means well fitted inhibition curve with a large enough effect; inconclusive means small, poorly fitted or top-dose-only effect; inactive means no such curve, though single readings can be large or run the other way. This is one part of the list.
# Test: Primary qHTS for Identification of Small Molecule Inhibitors of Huntingtin Promoter Activity; further: nearly all actives have a fitted effect of over 50% in size
# Conditions: HEK293 HTT promoter firefly luciferase reporter (activity 0% = vehicle and -100% = no light), 24 h; series mostly up to 57.5 µM; activity change, negative = inhibition: at the top concentration
# How it was run: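 Quantitative HTS used concentration series of up to 57.5 uM final on HEK293 luciferase reporter cells, 24 h at 37 degrees C. Readout was Dual-Glo firefly luminescence.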
row,SMILES,"activity change, negative = inhibition"
1,COc1ccc(CNC(=O)C2CCN(c3nnc(-n4c(C)ccc4C)s3)CC2)c(OC)c1,inactive: -14%
2,O=C(Nc1cccc(F)c1)C1CCCN(S(=O)(=O)c2cccc3cccnc23)C1 (centres undefined),inactive: -18.3%
3,CC1CCN(S(=O)(=O)c2ccc3c(c2)c(=O)c(C(=O)N2CCN(c4cccc(Cl)c4)CC2)cn3C)CC1,inactive: -4.5%
4,O=c1c2cc3c(cc2nc2sc(Nc4ccccc4)nn12)OCO3,inactive: 39.6%
5,CCOC(=O)c1c(C)oc2nc(C)nc(NCCc3ccc(OCC)c(OCC)c3)c12,inactive: -17.6%
6,COC(=O)c1ccc(NC(=O)CSc2cn(CC(=O)N3CCCCC3)c3ccccc23)cc1,inactive: -18.5%
7,COc1ccc(N2CCN(c3ncnc4c3cnn4-c3ccc(F)cc3)CC2)cc1,inactive: -3.49%
8,CCCN(C(=O)c1cn(C)c(=O)c2cc(OC)c(OC)cc12)c1ccc(CC)cc1,inactive: -24.6%
9,COc1ccc(NC(=O)C2=CC(c3ccco3)=NS(=O)(=O)N2C)cc1OC,inactive: -10.1%
10,CCc1ccccc1NC(=O)CCCSc1nc(-c2ccco2)cc(C(F)(F)F)n1,inactive: -4.49%
11,CCN(c1ccccc1)S(=O)(=O)c1nnc(NC(=O)c2ccccc2OC)s1,inactive: -13.3%
12,COc1cc(C)c(Cc2cnc(N)nc2N)cc1OC,inactive: 0.49%
13,CCOCCc1nn2c(=O)cc(COC(=O)c3ccc(NC(=O)C4CCCCC4)cc3)nc2s1,inactive: -11.4%
14,Cc1nn(-c2ccccc2)c(OC(=O)c2ccccc2Br)c1S(=O)(=O)c1ccccc1,inactive: -8.84%
15,O=C(CS(=O)(=O)c1cccc2nsnc12)N1CCN(c2ccccc2F)CC1,inactive: 8.28%
16,O=C(Nc1ccc(Cl)cc1)C1CCC(CNS(=O)(=O)c2ccc(Br)s2)CC1 (centres undefined),inactive: -12.4%
17,Cc1cc(NC(=O)c2ccc3c(c2)N(Cc2cccc(Cl)c2)C(=O)c2ccccc2S3(=O)=O)ccc1Br,inactive: -23.7%
18,CCCCN(C)CCCNC(=O)C1CCN(S(=O)(=O)CCC)CC1,inactive: 13.9%
19,CCN(CC)c1ccc(CNCCCSc2nnnn2C)cc1,inactive: -15.4%
20,COc1ccc(CNC(=O)c2cc(Nc3ccccc3C)nc3ccccc23)cc1,inactive: -1.26%
21,Cc1oc(-c2cccc(Cl)c2)nc1CN1CCC(C(=O)NC(C)c2ccccc2)CC1 (centres undefined),inactive: -4.8%
22,CCOc1ccc(CN2C(=O)c3ccccc3Sc3ccc(C(=O)NCc4ccco4)cc32)cc1,inactive: -28.7%
23,CCc1ccc(NC(=O)CC2C(=O)NCCN2C(=O)c2ccc(F)cc2)cc1 (centres undefined),inactive: -6.57%
24,CCc1ccc(NC(=O)NCCc2c(C)nn(C)c2C)cc1,inactive: 33%

row,SMILES,"activity change, negative = inhibition"
1,CCCC(CCC)(C(=O)OCC)C(=O)OCC,inactive: 3.94%
2,CCOc1ccccc1CNC(=O)c1ccc(CS(=O)Cc2cccc(Cl)c2)o1 (centres undefined),inactive: -16.2%
3,Cc1cccc(NC(=O)CSc2nnc(NC(=O)Nc3ccccc3)s2)c1C,inactive: -8.79%
4,CSc1ccc(C2C(C(=O)Nc3ccccc3)=C(C)Nc3nc4ccccc4n32)cc1 (centres undefined),inactive: -3.46%
5,CSc1ccc(CNC(=O)Cn2nc(N3CCN(c4ccccc4)CC3)ccc2=O)cc1,inactive: -0.912%
6,Cc1ccccc1CNC(=O)C(=O)NCC(c1ccco1)S(=O)(=O)c1cccs1 (centres undefined),inactive: -27.3%
7,COc1cccc(NC(=O)CSc2nnc(-c3cccc(OC)c3)o2)c1,inactive: 60.4%
8,NC[C@H]1O[C@H](O[C@H]2[C@H](O)[C@@H](O[C@H]3O[C@H](CO)[C@@H](O)[C@H](N)[C@H]3O)[C@H](N)C[C@@H]2N)[C@H](N)[C@@H](O)[C@@H]1O,inactive: 0.955% [at 25.2 µM]
9,CCc1ccc(-n2c(=O)c3sc4ccccc4c3n(CC(=O)N(CC)Cc3ccccc3)c2=O)cc1,inactive: -10.8%
10,CCNC(=O)NCc1cccc(Cl)c1,inactive: 7.32%
11,O=C(Nc1ccc2nc(SCC(=O)N3CCc4ccccc43)sc2c1)c1ccccc1,inactive: -14.6%
12,Cc1ccc2sc(-c3ccc(N)cc3)nc2c1,inactive: 11.9%
13,CCOC(=O)c1c(C)[nH]c(C)c1S(=O)(=O)N1CCCC(C(=O)Nc2cc(C)ccc2C)C1 (centres undefined),inactive: -7.94%
14,CCCCNC(=O)CSc1nc2nc(C)c(Cc3c(F)cccc3Cl)c(C)n2n1,inactive: -17.2%
15,CC(=O)c1ccc(NC(=O)COc2ccccc2-c2nc(-c3ccc(C)cc3)no2)cc1,inactive: 34.2%
16,O=C(NC1CC(=O)N(c2cccc(F)c2)C1)c1ccc2c(c1)OCO2 (centres undefined),inactive: 0.992%
17,O=C(C1CCC(Cn2c(=O)c3sccc3n(Cc3ccccc3)c2=O)CC1)N1CCOCC1 (centres undefined),inactive: -21.7%
18,Cc1ccc(-c2nnc(Nc3ccccc3O)c3ccccc23)cc1,inactive: -26.1%
19,O=C(Nc1cc2c(cc1C(=O)c1ccccc1Br)OCCO2)c1ccccc1,inactive: -2.04%
20,CC(=O)O[C@]1(C(C)=O)CC[C@H]2[C@@H]3C=C(C)C4=CC(=O)CC[C@]4(C)[C@H]3CC[C@@]21C,inactive: 5.94%
21,CCc1cc(C(=O)Nc2c(C)nn(Cc3ccccc3Cl)c2C)no1,inactive: -8.1% [at 11.5 µM]
22,Cc1cc(C)c(NC(=O)CN2C(=O)c3cccnc3Sc3ccccc32)c(C)c1,inactive: 4.69%
23,O=C(CCC(=O)N1CC2CCCN2c2ccccc21)NCc1ccc(F)cc1 (centres undefined),inactive: -6.59%
24,COc1ccc(C(=O)NCC(c2ccc3c(c2)OCO3)N2CCN(C)CC2)cc1 (centres undefined),inactive: -15.5%

row,SMILES,"activity change, negative = inhibition"
1,CCOc1ccc(CCNC(=O)c2nnc(Cc3ccc(Cl)cc3Cl)o2)cc1OCC,inactive: -17.2%
2,COc1cc(OC)c(N(C)C(=O)c2c(C)oc3ncnc(N4CCCCC4)c23)cc1Cl,inactive: -30.2%
3,CCOC(=O)c1cc2c(=O)n3ccccc3nc2n(CC2CCCO2)c1=NC(=O)c1ccccc1C (centres undefined),inactive: -13.9%
4,CCn1cc(/C=C(\NC(=O)c2ccc(C)cc2)C(=O)NCCCn2ccnc2)c2ccccc21,inactive: -0.996%
5,CCOc1ccc2nc(N3CCN(C(=O)c4ccco4)CC3)sc2c1,inactive: 0.0772%
6,COc1ccc(CNC(=O)C2CCCN(S(=O)(=O)c3ccc4c(ccn4C)c3)C2)c(OC)c1 (centres undefined),inactive: 0%
7,COc1ccc(NC(C)=O)cc1NC(=O)C1(c2cccs2)CCOCC1,inactive: -15.4%
8,CCc1ccc(-n2nc(CO)c(C(=O)NCCc3ccccc3)n2)cc1,inactive: 1.01%
9,O=C(CSc1nc2c([nH]c3ccccc32)c(=O)n1-c1ccc(F)cc1)N1CCc2ccccc21,inactive: -11.6%
10,Cc1cc(C)cc(-n2c(SCC(=O)N3CCC(C)CC3)nc3c([nH]c4ccccc43)c2=O)c1,inactive: -8.25%
11,Cc1ccc(C)c(N2CCN(C(=O)Cc3c(C(=O)O)c(C)cn3C)CC2)c1,inactive: -8.57%
12,COc1cccc(C(=O)N2CCCCC2CCN2CCCCC2)c1 (centres undefined),inactive: -7.42%
13,NC(=O)c1cnc(-c2ccc(C3(N)CCC3)cc2)c(-c2ccccc2)c1,inactive: -12.6%
14,Cc1oc(-c2ccccc2F)nc1CS(=O)CC(=O)NC(C)C (centres undefined),inactive: 3.47%
15,CC/C=C(\C(=O)N[C@@H]1C(=O)N2C(C(=O)OCOC(=O)C(C)(C)C)=C(COC(N)=O)CS[C@H]12)c1csc(N)n1,inactive
16,COc1ccc(OC)c(NC(=O)c2cccc3c2C(=O)N(C2CCCCC2)C3)c1,inactive: -19.4%
17,Cc1cccc(Cn2c(CNS(=O)(=O)c3ccc(C(C)C)cc3)nc3cccnc32)c1,inactive: -23.4%
18,C[C@@H]1O[C@@H](OC[C@H]2O[C@@H](Oc3c(-c4ccc(O)c(O)c4)oc4cc(O)cc(O)c4c3=O)[C@H](O)[C@@H](O)[C@@H]2O)[C@H](O)[C@H](O)[C@H]1O,inactive: 13%
19,COc1cc(NC(=O)CN2CCCN(S(=O)(=O)c3ccc(F)cc3)CC2)cc(OC)c1,inactive: -23.3%
20,CCOC(=O)c1cc(S(=O)(=O)Nc2c(C)cc(C)cc2C)[nH]n1,inactive: -11.6%
21,Cc1ccc2nc(-c3ccc(NC(=O)COc4ccccc4C(C)(C)C)cc3)sc2c1,inactive: 38.8%
22,CC(=O)NC(C)c1nc2ccccc2n1Cc1ccccc1Cl (centres undefined),inactive: 6.57%
23,Cc1ccc(C)c(NC(=O)C2CCCN2S(=O)(=O)c2ccc3c(c2)n(C)c(=O)c(=O)n3C)c1 (centres undefined),inactive: 7.07%
24,CCOC(=O)CCCCN(Cc1ccccc1F)S(=O)(=O)c1ccc(F)c(C(=O)Nc2cc(Cl)cc(Cl)c2)c1,inactive: -37.7%

row,SMILES,"activity change, negative = inhibition"
1,COc1cc(-c2noc(-c3ccc(NC4CCCC4)c([N+](=O)[O-])c3)n2)cc(OC)c1OC,inactive: -13.5%
2,O=C(NCc1ccc(F)cc1)c1nnc(Cc2cccc(F)c2)o1,inactive: -19.2%
3,COc1ccc(C2=NC(C)(C)N(CC(=O)Nc3cc(OC)cc(OC)c3)C2=O)cc1,inactive: -1.72%
4,CN(c1ccc(F)cc1)S(=O)(=O)N1CCCC(C(=O)NCCc2ccccc2)C1 (centres undefined),inactive: -22.5%
5,Cn1c2cc(S(C)=O)sc2c2cnn(Cc3cccc(N)c3)c(=O)c21 (centres undefined),inactive: 1.12%
6,CCN1CCN(c2cc(C)c3cc(NC(=O)/C=C/c4cccc(OC)c4OC)ccc3n2)CC1,inactive: -13.6%
7,CCOc1ccc(S(=O)(=O)NCc2nc3cccnc3n2Cc2ccccc2OC)cc1,inactive: -7.84%
8,CCOC(=O)C1CCN(C(=O)c2ccc3c(c2)sc2nc(-c4ccc(OC)cc4)cn23)CC1,inactive: -21.1%
9,CCCOc1ccc(-c2nc3ccc(Br)cc3c(=O)o2)cc1,inactive: 14.8%
10,CC1=C(C(=O)N2CCN(c3ccc(Cl)cc3)CC2)C2(CCC(C)CC2)OC1=O (centres undefined),inactive: -20.6%
11,O=C(Cn1c(=O)n(Cc2ccccc2)c(=O)c2sc3ccccc3c21)Nc1ccc(F)cc1,inactive: -13.8%
12,CCCC(=O)Nc1ccc(OCC(O)CNC(C)C)c(C(C)=O)c1 (centres undefined),inactive: 5.52%
13,COc1ccc(-c2nc3sc(CCNC(=O)C(=O)Nc4ccc(C)c(C)c4)c(C)n3n2)cc1,inactive: -34.3%
14,CCOC(=O)c1cc(-c2ccccc2)n(CC(=O)NCc2ccccc2)c1C,inactive: -18.6%
15,Cc1ccc(C)c(Cn2c(=O)n(CCCC(=O)NCCc3ccc(Cl)cc3)c(=O)c3ccccc32)c1,inactive: -11.4%
16,O=C(COc1ccc(Cl)cc1)NCC(c1cccs1)S(=O)(=O)c1ccc(F)cc1 (centres undefined),inactive: -29.3%
17,CCOc1ccc(-c2nonc2NC(=O)c2ccco2)cc1OCC,inactive: -25.3%
18,CCOC(=O)c1ccc(NC(=O)CC2C(=O)N(c3cccc(C)c3)C(=O)N2CCOC)cc1 (centres undefined),inactive: -14.8%
19,COc1ccc(OC)c(-c2csc(-c3c(N)c(C(=O)c4ccc(Cl)cc4)n4ccccc34)n2)c1,inactive: -29.3%
20,CCOc1cc(CNC(=O)NC2COc3ccccc3C2)cc(OCC)c1OCC (centres undefined),inactive: -2.75%
21,Cc1ccc(OCC(=O)Nc2nnc(SCc3cc(=O)n4cccc(C)c4n3)s2)cc1,inactive: 6.87%
22,COc1ccc(C(=O)Nc2nnc(S(=O)(=O)N(C)c3ccc(C)cc3)s2)cc1,inactive: 7.22%
